Assay results: the BET-seq Pho4 binding data (Le et al. 2018)
This is one part of the list. These are noisy estimates, calculated here from bound and input reads.

These sequences were tested against T1, Pho4 (S. cerevisiae) (UniProt P07270) (assay: relative binding free energy (BET-seq); higher = weaker binding). Conditions: reference: library average.
T1 sequence: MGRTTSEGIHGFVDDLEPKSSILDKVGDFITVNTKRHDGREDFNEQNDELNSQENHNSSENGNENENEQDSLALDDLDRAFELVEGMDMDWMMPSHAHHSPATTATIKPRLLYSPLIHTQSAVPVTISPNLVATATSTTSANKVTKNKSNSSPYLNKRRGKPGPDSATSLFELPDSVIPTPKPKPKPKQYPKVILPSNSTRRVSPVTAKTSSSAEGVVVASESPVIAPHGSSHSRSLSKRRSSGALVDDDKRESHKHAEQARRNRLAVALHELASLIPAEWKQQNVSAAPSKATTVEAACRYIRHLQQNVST

Sequence | relative binding free energy [kcal/mol]
GTTGACACGTGCAAGT | 0.1
CGGTGCACGTGGGTAA | -0.16
TTGAGCACGTGACAGT | 0.12
ACATTCACGTGGGATT | 0.06
ATTAACACGTGTTTAG | -0.05
TTAGCCACGTGAGGGT | 0.1
GTGGGCACGTGTCGCA | -0.12
CGGTGCACGTGAGAGT | 0.08
CTGTTCACGTGGGTTG | 0.12
TAGGGCACGTGAAAGT | 0.14
TGAGCCACGTGCGTGG | -0.1
GTGTGCACGTGCTTCG | 0.06
GGTTGCACGTGTTCGT | 0.03
TGCGGCACGTGTGGTC | -0.09
AAATGCACGTGGGGGA | -0.19
CGTTACACGTGCGGGT | 0.07
CATGTCACGTGGCTGT | 0.08
CTGGCCACGTGGTCGG | -0.1
ATTGTCACGTGTAATC | 0.29
TGGTGCACGTGCTGAT | -0.09
ATATACACGTGAGGTA | 0.21
ATGTTCACGTGGTCGC | 0.28
GATGGCACGTGTTACG | -0.05

Sequence | relative binding free energy [kcal/mol]
GATGACACGTGATGTG | 0.12
GGGTTCACGTGCGTAG | 0.23
ATCGTCACGTGTATGT | 0.15
GGTTTCACGTGAGCGA | 0.27
ATGTTCACGTGGAGGA | 0.29
AAGTTCACGTGATCGT | 0.18
ATATTCACGTGTATCT | 0.17
ATAAGCACGTGGGATA | -0.14
CATTTCACGTGTGTAT | 0.2
ATGTACACGTGATGGA | 0.14
ATTGACACGTGCGTGG | 0
AGAATCACGTGGGTGC | 0.07
ATTAACACGTGATATG | 0.04
CTTATCACGTGATATG | 0.18
TTTGGCACGTGTAACG | 0.03
AATCGCACGTGTTTGA | 0
GGGGACACGTGCGTGT | 0
TGAGGCACGTGTTGCG | 0.05
GGTGACACGTGAAGGT | 0.22
CGCGGCACGTGGTGTG | -0.21
GTTTACACGTGTGTTG | 0.21
AGTGACACGTGAGGCA | 0.13
TATAACACGTGCGGTA | 0.05

Sequence | relative binding free energy [kcal/mol]
GAGGGCACGTGTTTGA | 0.05
GTTGGCACGTGTTTCC | 0.16
ATCGTCACGTGTAGGT | 0.05
ATTGCCACGTGGGGAG | -0.27
ATGGTCACGTGAGTAC | 0.18
GTGGTCACGTGCCTGG | -0.02
AATGTCACGTGCTTGT | 0.07
TTTGTCACGTGCAATA | 0.11
ATACTCACGTGGTTTG | 0.1
TGGTGCACGTGAGAGG | 0.23
GTTTGCACGTGTCGTA | 0.1
TGTTTCACGTGCGCGG | 0.23
TCGATCACGTGTAGTT | 0.28
TGGGGCACGTGTTTAC | -0.1
GGGCGCACGTGATGAG | 0.21
AATTACACGTGGCTGG | 0.07
TGCTCCACGTGGGTGT | -0.06
GAATGCACGTGGTTCA | 0.14
CAGCGCACGTGGTGGT | -0.18
ATTGGCACGTGTATGT | -0.21
ATAAGCACGTGTGTGC | -0.18
AATTTCACGTGGGCGT | 0.23
CGGTTCACGTGTTGGT | 0.27

Sequence | relative binding free energy [kcal/mol]
AGTCGCACGTGGGGTA | -0.29
TTTGTCACGTGTTTGA | 0.08
GTCGACACGTGTGTTT | 0.14
AATTTCACGTGTTTAG | 0.17
AGTGTCACGTGGAATC | 0.26
AGTGTCACGTGTTCCG | 0.09
CGAGTCACGTGAGTTG | 0.36
CGTTACACGTGTTGTT | 0.11
AGGGTCACGTGGGCTC | -0.02
ATGTGCACGTGTTAGG | -0.02
TGGGCCACGTGCGGGA | -0.26
CGTCTCACGTGGTATG | 0.15
TTGGGCACGTGGGCTT | -0.21
GGGGTCACGTGCGCGG | 0.1
TATCGCACGTGGTGCT | -0.11
TTAGACACGTGGTCTA | -0.08
GGTGGCACGTGGTATG | -0.14
ATTTTCACGTGTCGGT | 0.36
GGGTGCACGTGAGACG | 0.19
CGTAGCACGTGAGTGA | 0.08
TATTGCACGTGTAATG | -0.03
AAGCGCACGTGGTAGG | -0.15
GGTGTCACGTGGTATA | 0.17

Sequence | relative binding free energy [kcal/mol]
GGGGGCACGTGTTGAC | 0.02
GGGTGCACGTGCATGA | 0.01
ATTAGCACGTGTATGT | -0.05
AAGTTCACGTGCGTGC | 0.18
TTGGCCACGTGGGGCA | -0.2
TGCATCACGTGGTTTT | 0.1
ATGGACACGTGCGTGA | 0
AGAGTCACGTGTCGTT | 0.06
TGGAACACGTGATCGT | 0.14
GGGTACACGTGACGGC | 0.5
CGTCGCACGTGTAGGT | -0.18
GACGGCACGTGATGAG | 0.22
TAGTGCACGTGTACTT | -0.02
TTTCGCACGTGAGATA | 0.28
AATTTCACGTGGTTGC | 0.22
CGTTGCACGTGTATAG | 0.12
ATGCGCACGTGTGGGC | -0.05
TATATCACGTGTTTTA | 0.1
TTCATCACGTGATTAG | 0.1
ATTTTCACGTGTAGCA | 0.21
TTTACCACGTGCGTGT | -0.09
GTTGGCACGTGTCTGG | 0.05
TGGTGCACGTGCGTGA | -0.05
